{"sequences": {"note": "Amino acid sequences for entries named in this document (tags omitted).", "UniProt O00141": "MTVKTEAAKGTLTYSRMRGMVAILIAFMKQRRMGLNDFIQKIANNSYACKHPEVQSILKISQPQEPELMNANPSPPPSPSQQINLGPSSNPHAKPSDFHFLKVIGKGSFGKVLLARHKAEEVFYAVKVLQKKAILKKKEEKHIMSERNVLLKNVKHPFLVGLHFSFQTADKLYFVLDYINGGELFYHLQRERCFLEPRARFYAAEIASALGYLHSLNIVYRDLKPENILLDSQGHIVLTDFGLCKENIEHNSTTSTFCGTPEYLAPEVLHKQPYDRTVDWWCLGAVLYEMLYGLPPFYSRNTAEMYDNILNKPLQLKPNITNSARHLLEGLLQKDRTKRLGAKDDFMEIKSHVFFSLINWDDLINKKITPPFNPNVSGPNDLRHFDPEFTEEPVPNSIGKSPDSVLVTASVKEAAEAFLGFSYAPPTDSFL"}, "source": "paper PMC9241813", "about": "“SGK1, a Serine/Threonine Kinase, Inhibits Prototype Foamy Virus Replication” (Microbiology Spectrum, 2022)", "molecules": {"B1": {"name": "prototype foamy virus Tas protein (Flag-Tas) (natural protein)", "chain": "MDSYEKEESVASTSGIQDLQTLSELVGPENAGEGELTIAEEPEENPRRPRRYTKREVKCVSYHAYKEIEDKHPQHIKLQDWIPTPEEMSKSLCKRLILCGLYSAEKASEILRMPFTVSWEQSDTDPDCFIVSYTCIFCDAVIHDPMPIRWDPEVGIWVKYKPLRGIVGSAVFIMHKHQRNCSLVKPSTSCSEGPKPRPRHDPVLRCDMFEKHHKPRQKRPRRRSIDNESCASSSDTMANEPGSLCTNPLWNPGPLLSGLLEESSNLPNLEVHMSGGPFWEEVYGDSILGPPSGSGEHSVL", "notes": "also called PFV Tas; Myc-Tas; source: HEK293T, transfected, in lysate"}, "B2": {"name": "PFV Tas made in PFV-infected cells (protein, UniProt P14353 1-300)", "chain": "B1 chain"}}, "key": {"[1]": {"target": "Tas deletion mutant (1 to 222 aa), containing the DNA binding domain (prototype foamy virus (PFV)) (UniProt P14353)", "test": "co-IP; HEK293T cells transfected 48 h; lysis in 50 mM Tris, 150 mM NaCl, 2 mM EDTA, 3% glycerol, 1% Triton X-100; antibodies (Flag or HA) 3 h at 4°C, Protein A-agarose, six washes; Western blot"}, "[2]": {"target": "Tas deletion mutant (215 to 300 aa), containing the activation domain (prototype foamy virus (PFV)) (UniProt P14353)", "test": "co-IP; HEK293T cells transfected 48 h; lysis in 50 mM Tris, 150 mM NaCl, 2 mM EDTA, 3% glycerol, 1% Triton X-100; antibodies (Flag or HA) 3 h at 4°C, Protein A-agarose, six washes; Western blot"}, "[3]": {"target": "T1, prototype foamy virus Tas protein (Flag-Tas) (prototype foamy virus (PFV)) (UniProt P14353)", "T1 sequence": "B1 chain", "test": "co-IP; HEK293T cells transfected 48 h; lysis in 50 mM Tris, 150 mM NaCl, 2 mM EDTA, 3% glycerol, 1% Triton X-100; antibodies (Flag or HA) 3 h at 4°C, Protein A-agarose, six washes; Western blot"}, "[4]": {"target": "T1, prototype foamy virus Tas protein (Flag-Tas) (prototype foamy virus (PFV))", "test": "cross-linking; HEK293T cells transfected with Flag-Tas and empty vector or HA-SGK1; lysate supernatant incubated with cross-linking buffer at room temperature for 30 min; Western blot"}, "[5]": {"target": "T1, prototype foamy virus Tas protein (Flag-Tas) (prototype foamy virus (PFV))", "test": "co-IP; HEK293T cells transfected 48 h; lysis in 50 mM Tris, 150 mM NaCl, 2 mM EDTA, 3% glycerol, 1% Triton X-100; antibodies (Flag or HA) 3 h at 4°C, Protein A-agarose, six washes; Western blot", "remark": "listed apart in the source"}, "[6]": {"target": "P62 (also known as sequestosome 1) (human (endogenous in HT1080)) (UniProt Q13501)", "test": "co-IP; HT1080 cells infected with PFV stock (MOI = 1.0), 48 h; precipitation with IgG and p62 antibodies; Western blot with Gag, Tas and p62 antibodies"}}, "note": "Results are given in words; binding and its absence hold for the method and conditions named. Binding seen in cells or lysates may run through a third protein. Some entries that bind do so weakly or less than the wild type. For part of these data: Where a sequence is shown, tags or fusion partners need not be part of it.", "data": [{"molecule": "human serum/glucocorticoid regulated kinase 1 (HA-SGK1) (from UniProt O00141 1-431) (enzyme)", "values": [{"measurement": "binding", "setting": "[1]", "result": "no binding"}, {"measurement": "binding", "setting": "[2]", "result": "binds"}, {"measurement": "binding", "setting": "[3]", "result": "binds"}]}, {"molecule": "B1", "values": [{"measurement": "binding", "setting": "[4]", "result": "binds"}, {"measurement": "binding", "setting": "[5]", "result": "binds"}]}, {"molecule": "B2", "values": [{"measurement": "binding", "setting": "[6]", "result": "no binding"}]}]}
